In all, about 4,500 sequences were measured (“median log2 fold change of GCK-ALFA target abundance (FLAG IP / Myc IP barcode read proportion)”: median about 0.078, lowest 2% from about -0.6 on). This is one part of the list.
B1: GBRAP_14_3773 (protein)
chain: MEEKIKILKETTEEAAALLAELDPALAEEYRRALEEVREKTIEEIKKTGNAIEAADRGREEAVARIAEITADRPAELRAQAEAIVAVLFGQAILEIDELE
B2: GBRAP_139_3750 (protein)
chain: SALEEKIKEAVELAKKIPEDPEGSIKAIADLLVSVNEEDAEKIARAIAEELASLPFDEFEAIMDKLIETLKTEYNNEDLADIVEAERNRQLAKIAVEEEK
B3: GBRAP_52_5974 (protein)
chain: MEEEMRKLAKEIVALILAGDEAGARALLEEIAATKTEEEITLLFKELAKLAKTATPEERDAIVEAALLAEDIALAAGFDEAVMDSNLADVVKAAVDAEKA
B4: GBRAP_160_4481 (protein)
chain: MEKVKKAAEDLREDVKKTLEESKDESPEQVATAVAVTLGSDLMEYESEGLINDEQADIVIEAMDEIRELGKEKKDESVEEVIKELEEIVEKTVEKILEAA
B5: GBRAP_125_3120 (protein)
chain: HMEQLLEDLAIVLRALGFDEEDIEEALELARRHGLKGTMIAAAMALGYEEIADLIEKLSEEDVAEAVAELAAEIKANPDLTPEEVKERFKEILEKKLAAQ
B6: GBRAP_78_6654 (protein)
chain: EVEELIDKAMEHLDKAAKLTKKLDEESRNELLDLLVEAASHILLSEENGFDLEELKEALEYLKKALEYAKSLNTPVAKEIAEELEKAIEYLEKAIKLLEE
B7: GBRAP_26_5422 (protein)
chain: LDEKIDQMRDDLDALAKEVLDPETAAAVTAEADTILLELEEELEKNKNNLELQEKALEEALKEFEKALDELGVSEEAKKKLVAKFKEGLKKILEYLKKQQ
B8: GBRAP_52_6363 (protein)
chain: SLEEALKKLREAVEAELEGKEEEAEKILKEIVENFSEEEILAAVERLAEEVQTKSLEEAEAFLETAIRLADIMLEAGKDEAVADEIEAIAARAYMAVLEK
B9: GBRAP_184_5026 (protein)
chain: TVIEEEIVASDLAELEAKLAALAARVAGSGADLVVDLDLENPTEEKVRTAIAGLGAIKAAGNVSRVTVGFRNELSEELEEVALEAGDENGVNVVLPISDE
B10: GBRAP_125_3114 (protein)
chain: SMEEALEDLATVMRALGFDDEDIEEALELAKKFGLKQTMIAIFLAEGWEENAELAEKLTEEQVLRALAELAAWIRAHPDATPEEVAARAKEILERLLAEQ
B11: GBRAP_52_6140 (protein)
chain: MREELRKKAREILEKVKAGKLEEAKKIAKEIAEELNDEELKLFADEFAEVIRELRPEEIDYAAKALEILEDALEEAGRDEEIISYLRGKSTRAMYEVEQR
B12: GBRAP_11_2656 (protein)
chain: KKEAYKKAAELAEEAAKALQKLIEEGVDDEELIEKLRKLIEELKKLAEEELDEADKKEVEVVVELFEEFLADEENRLQLAEELLAGLRVLAGNFQLKADE
B13: GBRAP_128_3211 (protein)
chain: SVEEVREEVRRLLEEIKKADPETAKKIAEELAELIRNSSVEEAEAAREVIEELAPELSEEDLEILMEAFEKEARKTSDEISLVLLDISIILGSEIIEKEE
B14: GBRAP_53_6389 (protein)
chain: SEEELRRLIEELERLIEELKTADPERAVELARRAVELLLELAKLGLPEEELVRLVKRFAEAAAPKPELRPVLVELARRLAELGREDAAAEVAEALVEELE
B15: GBRAP_125_3041 (protein)
chain: SLEEAIEALAALAKIFGYSEEEVAELAELARKYGVKGALIALLLAEGLEELAELVAKLSDEAVKEVLRKFLAWVKAHPDITREEAVKKLRELVEEALKKE
B16: GBRAP_160_4818 (protein)
chain: SEKVKEILKDIDEETELVLSYVDTESVAQVTTLFEGEFGSIILELEEEEWLSDEAIDKIREIVDDTVAYMRANPDLSPEEIKELIKKAAEEIKKIIEEDD
B17: GBRAP_78_6691 (protein)
chain: KIEEELEKAIEHLGKAAKILAKMNTEEALDLLDEVIDAASILTEALLGETKLEDLEEALKILEKVAKELKKINTEEAKEALEHVEKAIKHVKKAIKLLKE
B18: GBRAP_139_3706 (protein)
chain: SELEKIIEEARELTRKMEEDFEESLDKIVELIKSLDEEKAEAALKAIGEVLAEFPLDKAEEYADALLEKIEEEIDDEDKVIIAEAVLNGALARHAAAEEA
B19: GBRAP_74_6537 (protein)
chain: DEELLKAAKEAAEKGDIEKLIEIAEEALENGSEETKVEVTTILLKTAKENKEKLTPEQIEAIADIIAKLYEVVDDEKLSDETAKLANEALALAVKTEKEK
B20: GBRAP_80_6775 (protein)
chain: AEEEVKKAIEEVEKLDPELAERLKKIYEELLKKGVSEEVLKAFAEAVAAIAKLLKLGETEEAKELVEELEEAAEEEDDENILAMLRGIAGEALMIVEELE
B21: GBRAP_11_2750 (protein)
chain: EKEKLKEIAKLAEEAAKLLQQLIKEGADNKELQAKLKEALEKLEKKVKELGDEFLKKLVEIAKENFEQAQADPETAQQHLQNALAALRTLAGQALLEIEE
B22: GBRAP_52_6032 (protein)
chain: MRERARRLAEEIIALVKAGRLEEARALVREIVATASEEELRLLGEELARLTREAPPEELDAYMRAAEILADAMEEAGFPEVLADDLLARVAAAAVENLAA
B23: GBRAP_160_4081 (protein)
chain: SAAHEKLIKEVTEIFDEALKMMEGVTPAEAVAIALVALGEVALLIEEEEELSEEDKDKLLALVDAAEAEVRAAADATVAELKALLERHRDEIVAAIKALD
B24: GBRAP_57_6444 (protein)
chain: SERLKEAEKLAEEIKKMLEEGAPLEEIKKKFEKLLDLLSEEDLLDIALILDPETDPNASREEIKERLLELFERAVREEGPEAAKAMVDLAVGQLEMSEIE
B25: GBRAP_14_3873 (protein)
chain: KEAALAIAREEIEEMEELLIEAIPEKKEEIEEMKKKLLEAAEKFFESEEDPEKAVEKLEEFADEKIEELKKKLTPEEAALAEAIAGTEMGNLRLKVDELL
B26: GBRAP_14_3782 (protein)
chain: MEEKERIIREEAERIIELLTEIVPEKAAEIRELVERVVAATIARMKETGDAEAAAEAGRDELVAGIEELLADLDPETRARALAVVRVEFGRAILEIEELE
B27: GBRAP_125_3014 (protein)
chain: AAEALAAAVGLIARALGYSEADVAELEALTLAHGVKGTLIAIALAEGDEELADLLERLSEAQVAAVVLRAAAELEAHPDLTPEEVKALLLRLAREALAAA
B28: GBRAP_43_5750 (protein)
chain: MEEIIEGHVDFALLAAEDPNISEEQKLKIAKDTFDILADENISLPEESSKLTEALAKSLSLEQLKELLAHLKELAKKYPELKELFDKNSKIIEEAIKKLE
B29: GBRAP_43_5791 (protein)
chain: MEEIVEGALDFARTALETPEITDETKARIVVDAVDFAADEGLLTEEELEELLRLLAESVSLEVAERALEEILKRLKELGAPQSLIDVVEKALEEVKKRRA

These binders were tested against GABARAP, O95166 (assay: median log2 fold change of GCK-ALFA target abundance (FLAG IP / Myc IP barcode read proportion) (log2 ratio); each designed protein is fused to an ALFA-tag nanobody in HEK293 cells to bring the named protein to FLAG-tagged glucokinase (GCK); Myc marks an untargeted standard; higher = target protein stabilised (more abundant)). Conditions: target protein: 3xFLAG-MCP-GCK-ALFA reporter; HEK293 landing pad (RPLP).
GABARAP, O95166, sequence (O95166 whole entry, the tested form may be a part): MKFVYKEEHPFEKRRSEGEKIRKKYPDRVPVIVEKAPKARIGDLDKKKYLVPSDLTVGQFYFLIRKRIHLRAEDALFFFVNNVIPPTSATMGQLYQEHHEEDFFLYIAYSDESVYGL
In short: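 Sequencing of reverse-transcribed, amplified circular RNA barcodes from anti-FLAG and anti-Myc immunoprecipitates provided the readout for an ALFA-nanobody-fused binder library recombined into HEK293 landing-pad cells. Those cells were induced with 2 μg mL^−1 doxycycline, transfected with a plasmid expressing a FLAG-tagged target and a Myc-tagged standard, and lysed after 48 h. Target abundance is the per-binder median log2 ratio of FLAG to Myc barcode read proportions. Only barcodes at a proportion of ≥10^−7 in both replicates and binders with ≥3 barcodes per replicate were kept, with a 10^−6 pseudocount added before the two replicates were pooled.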

| Binder | median log2 fold change |
| --- | --- |
| B1 | 0.0144 |
| B2 | 0.174 |
| B3 | -0.0573 |
| B4 | 0.249 |
| B5 | -0.131 |
| B6 | 0.0422 |
| B7 | 0.22 |
| B8 | 0.134 |
| B9 | 0.126 |
| B10 | -0.541 |
| B11 | 0.063 |
| B12 | 0.336 |
| B13 | -0.219 |
| B14 | 0.0692 |
| B15 | -0.384 |
| B16 | 0.00235 |
| B17 | -0.429 |
| B18 | 0.159 |
| B19 | 0.302 |
| B20 | -0.0207 |
| B21 | 0.0856 |
| B22 | -0.327 |
| B23 | 0.134 |
| B24 | 0.317 |
| B25 | 0.399 |
| B26 | 0.291 |
| B27 | -0.0942 |
| B28 | 0.475 |
| B29 | -0.0499 |
